Entries after “also recorded” stand apart in the source; their conditions may differ.
How the values were obtained:
rat cKIT ECD = test: SPR (Biacore 2000) affinity measurement; type: binding; conditions: 25° C., antibody captured, ECD in solution
Description: Affinity of the antibodies to cKIT species orthologues and also to cKIT was determined using SPR technology using a Biacore® 2000 instrument (GE Healthcare, Pittsburgh, Pa.) and with CM5 sensor chips.
Briefly, HBS-P (0.01 M HEPES, pH 7.4, 0.15 M NaCl, 0.005% Surfactant P20) supplemented with 2% Odyssey® blocking buffer (Li-Cor Biosciences, Lincoln, Nebr.) was used as the running buffer for all the experiments. The immobilization level and analyte interactions were measured by response unit (RU). Pilot experiments were performed to test and confirm the feasibility of the immobilization of the anti-human Fc antibody (Catalog number BR100839, GE Healthcare, Pittsburgh, Pa.) and the capture of the test antibodies.
For kinetic measurements, the experiments were performed in which the antibodies were captured to the sensor chip surface via the immobilized anti-human Fc antibody and the ability of the cKIT proteins to bind in free solution was determined Briefly, 25 μg/ml of anti-human Fc antibody at pH 5 was immobilized on a CM5 sensor chip through amine coupling at flow rate of 5 μl/minute on all two flow cells to reach 10,500 RUs. 0.1-1 μg/ml of test antibodies were then injected at 10 μl/min for 1 minute. Captured levels of the antibodies were generally kept below 200 RUs. Subsequently, 3.125-50 nM of cKIT receptor extracellular domains (ECD) were diluted in a 2-fold series and injected at a flow rate of 40 μl/min for 3 min over both reference and test flow cells. Table of tested ECDs is listed below. Dissociation of the binding was followed for 10 min. After each injection cycle, the chip surface was regenerated with 3 M MgCl2 at 10 μl/min for 30 s.

[1] = test system: surface cKIT on GIST-T1 cells; test: cKIT Ab-mediated internalization by flow cytometry; type: cell-based, human; conditions: 10 μg/ml, 37° C., FIG. 13A
Description: The kinetics of cKIT antibody mediated internalization was evaluated by treating with antibody in a cell monolayer using a temperature shift method and flow cytometry readout. GIST-T1 (kindly provided by Dr. Takahiro Taguchi, Kochi U., Japan) cells were seeded at 2.5×10E5 cells/well in five 12-well tissue culture treated plates (BD Falcon 353043). The cells were incubated in a tissue culture incubator at 37° C. with 5% CO2 overnight. The following day medium was removed and replaced with 450 μl fresh medium. […] All cells were incubated for 1 hr on ice, followed by two washes with 1 mL 1× Phosphate buffered saline (PBS) and resuspended in 500 μl cell culture medium. Plates #2-5 were transferred to 37° C. and harvested at time points; 30 min, 2 hr, 4 hr and 24 hr at 37° C. with 5% CO2. 100 μl of cell dissociation buffer (Gibco Cat#13150-016, Life Technologies, Carlsbad, Calif.) was added to plate#1 (4° C. binding control) and incubated at 37° C. until cells were detached. Cells were neutralized with 100 μl of medium and transferred to a 96 well V-bottom tissue culture treated plate (Costar 3894). […] The following day, all samples were analyzed using the BD FACSCanto II® equipment using a HTS system (BD Biosciences, San Jose, Calif.). Samples were analyzed with FlowJo software to obtain the Geometric Mean values of fluorescence for the Phycoerythrin channel. […]

[2] = test system: cKIT on normal human CD34+ bone marrow cells; test: Internalization, cKIT receptor levels by flow cytometry; type: cell-based; conditions: 10 μg/ml; for internalization of surface cKIT: 37° C., FIG. 13B
Description: In another internalization experiment, the impact of NEG085 on cKIT receptor levels was evaluated on human bone marrow cells. Normal human CD34+ bone marrow cells (All Cells, Cat #ABM022F, Emeryville, Calif.) were thawed and washed with 10 mL of StemPro®-34 SFM medium (Gibco, Life Technologies, Carlsbad, Calif.). Cells were resuspended in 1.25 mL of StemPro-34 SFM medium at 4×10^5 cells/mL and split equally into two tubes. […] 100 μL of cell suspension was collected at each timepoint (0, 15, 30, 60, 120, and 240 min) from each condition, and placed into an ice cold collection tube to cease internalization. Cells were washed with 3 mL of ice-cold FBS stain buffer and resuspended in 100 μL of FBS stain buffer. […] of 104D2-BV421 (mouse anti-human IgG1 k, Biolegend, San Diego Calif.) was added to each tube and incubated on ice for 1 hour. Following another wash with FBS stain buffer, total cKIT receptors were measured by flow cytometry by assessing the mean fluorescence intensity of BV421 on a FACS Canto II® (BD Biosciences, San Jose, Calif.).

Uke-1 cells = test: ADCC activity in vitro (Calcein release, NK3.3 effector cells); type: cell-based, human; conditions: Uke-1 target cells, NK3.3 effector cells 20 to 1, FIG. 17
Description: In brief, Uke-1 cells were stained with Calcein acetoxy-methyl ester (Calcein-AM; Sigma-Aldrich catalog #17783-5MG, St. Louis, Mo.), washed twice, pipetted into a 96-well microtiterplate (96 well, U-bottomed, clear plastic; Corning Costar, catalog #650 160, Tewksbury, Mass.) at a concentration of 5000 cells per well and pre-incubated for 10 min with a serial dilution of the above mentioned antibodies and proteins (from 50,000 to 0.003 μg per ml) before adding the effector NK3.3 cells for 1 hour in an effector to target ratio of 20 to 1. In order to calculate the antibody specific lysis of the target cells, a parallel incubation of target cells only without antibody or effector cells served as a baseline and negative control, whereas the positive control or maximal lysis or hundred percent specific lysis was determined by lysis of target cells only with a 1% Triton-X 100 solution. […] Following a co-incubation of target and effector cells, the microtiterplate was centrifuged and an aliquot of the supernatant fluid was transferred to another microtiterplate (96 well, flat-bottomed, black with clear bottom; (Corning Costar, catalog #3904, Tewksbury, Mass.) and the concentration of free Calcein in solution was determined with a fluorescence counter (Victor 3® multilabel counter, Perkin Elmer, Waltham, Mass.).

Molecule | Affinity to rat cKIT (rat cKIT ECD) | internalization of surface cKIT [1] | time of the bulk of the internalization [2] [min] | internalization of surface cKIT [2] | ADCC (Uke-1 cells)
NEG085 (antibody) heavy: EVQLVESGGGLVQPGGSLRLSCAASGFAFSGYYMAWVRQAPGKGLEWVANINYPGSSTYYLDSVKGRFTISRDNAKNSLYLQMNSLRAEDTAVYYCARGDYYGTTYWYFDVWGQGTTVTVSSASTKGPSVFPLAPSSKSTSGGTAALGCLVKDYFPEPVTVSWNSGALTSGVHTFPAVLQSSGLYSLSSVVTVPSSSLGTQTYICNVNHKPSNTKVDKRV[human IgG1 Fc omitted here] light: DIQMTQSPSSLSASVGDRVTITCRASQSISSYLNWYQQKPGKAPKLLIYYTSRLQSGVPSRFSGSGSGTDFTLTISSLQPEDFATYYCQQGRRLWSFGGGTKVEIKRTVAAPSVFIFPPSDEQLKSGTASVVCLLNNFYPREAKVQWKVDNALQSGNSQESVTEQDSKDSTYSLSSTLTLSKADYEKHKVYACEVTHQGLSSPVTKSFNRGEC | Not reactive | rapid internalization; also recorded: rapidly internalized | 15 | rapid internalization; also recorded: rapidly internalized | not able to induce ADCC even at higher concentrations
20376 (antibody) heavy: QVQLVQSGAEVKKPGSSVKVSCKASGGTFSSYAISWVRQAPGQGLEWMGGIIPMSGRTTYAQKFQGRVTITADESTSTAYMELSSLRSEDTAVYYCARDYGPEAPDYGQSTSYFWYYAFDPWGQGTLVTVSSASTKGPSVFPLAPSSKSTSGGTAALGCLVKDYFPEPVTVSWNSGALTSGVHTFPAVLQSSGLYSLSSVVTVPSSSLGTQTYICNVNHKPSNTKVDKRV[human IgG1 Fc omitted here] light: DIELTQPPSVSVSPGQTASITCSGDNIPSYFVHWYQQKPGQAPVLVIYDDNDRPSGIPERFSGSNSGNTATLTISGTQAEDEADYYCSSWDQDTVVFGGGTKLTVLGQPKAAPSVTLFPPSSEELQANKATLVCLISDFYPGAVTVAWKADSSPVKAGVETTTPSKQSNNKYAASSYLSLTPEQWKSHRSYSCQVTHEGSTVEKTVAPTECS | Not reactive | rapid internalization; also recorded: rapidly internalized | – | rapid internalization | not able to induce ADCC even at higher concentrations

Source: patent US9789203B2, “cKIT antibody drug conjugates” (Novartis AG, priority 2013, dated 2017)
